Sequences with one replicate were seen in a single cluster, so their values are uncertain.
System: ATP
Assay: switch fluorescence ratio, 500 uM ATP over buffer (Cy3 cluster intensity, sum of 5 cycles each) (fold (ratio)); higher = stronger signal-on switching upon ATP binding; sequences stand for … in TCGTCGGCAGCGTCAGATGTGTATAAGAGACAGTTTTTTTTTTTTTTTTTTTTTTTTT…TC
Conditions: aptamer strand: ATP DNA aptamer (quencher-CACCTGGGGGAGTATTGCGGAGGAAGG + anchor), 100 nM annealed; ATP concentration: 500 uM; one replicate
Outline: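 The fluorescence ratio divides summed target-cycle Cy3 intensity by summed buffer-cycle Cy3 intensity for each cluster and is averaged per switch-domain sequence. Cy3-labelled switching-strand clusters on a modified Illumina MiSeq flow-cell were annealed to 100 nM quencher-labelled ATP aptamer, then imaged in selection buffer and again after 15 min with 500 uM ATP at 22 °C. Five such cycles were run, with NaOH stripping and re-annealing between them, and clusters outside 100-1000 RFU were excluded.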
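Also: ATP exposure 15 min at 22 °C before imaging.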

Sequence	switch fluorescence ratio
TCGCTTAATG	1.01
ACGGTGCTTT	1.11
GTATATAATT	1.02
TAAATCACGT	1.05
ACTCTTCCG	1.22
TAAGGGATCG	1.04
AGGGATATAG	0.98
AAGGTTAGGC	1.02
AAAGTAGCAC	1.01
TCGTAGATAT	0.999
GAGCTTCGAA	0.981
TCATGGCTCA	0.975
TAGACCAGAT	0.983
GGAGCCGTTG	0.971
CTAGGTACAG	1.04
ACTAGGTACG	1.05
CGATACGCGT	1.02
ACGTGCACGT	0.986
CACCATGAAA	1.03
GGGAAGTTTC	1.03
AAAAATTTAC	1.1
GATCCGGCAC	1.45
CAATATTGGG	0.981
ATGCCATTGA	0.958
AATCTGTTAA	1.02
GCGATCCTCG	1.06

Sequence	switch fluorescence ratio
GATTCACGCG	1.02
AGAGAATAAC	1.01
ACCCAGCATT	1.17
AAATACCTCG	1.07
AAATTTGAG	0.994
GAGTACGAAC	1.03
CTGATAAGC	0.923
ACGACAGGGC	1.12
CAGTTATACA	1.03
TAATATTCCA	0.98
TGGCTAGGTT	0.978
TCAGGGCTGC	1.02
AACTTTCGTA	0.994
CCAGATTGCC	0.95
GCAGGTACGG	1.01
CGAGGTTGTG	1.04
CATGCGGTCA	0.96
GGCAGTACAT	1.05
CATGGCCTGC	0.994
TCCACTAGTT	0.982
CGAGAGGTC	1.07
ACGATAATTG	1.05
TCCTGTGCTA	3.82
TTCGCAAAAA	1.21
TGATTAATCA	0.99
CCGATAACTA	1.01

Sequence	switch fluorescence ratio
ATCCTGCGC	2.09
ACGAATAACG	1.03
TCCGTTAAAG	1.09
ACTGGAGGCA	0.996
GGCTCGTGGT	0.993
ACTCGCGTTC	1.81
CCCGTGCCTC	1.05
AAAATTTTAA	0.96
CATGGCAAAG	1.02
GAGGTCTTAC	1.03
GTTTTGTGGC	0.967
CGCTATTCGA	1.14
CGACCCAAAG	1.02
CTAGCTAATA	1.13
CTCTGGACT	1.08
CCTATTCCTC	1.1
CGACGCTTCG	1.14
GGAAGCATAG	1.22
ATCCATTTTT	1.05
TTAATCATT	0.998
AAAGCGGAGC	1.07
ACCTCGCTCA	1.15
GAGCTGAGGT	1.03
GCTAAAGGT	0.984
GGAAAAACAA	1.03
TTATACCGGG	1.03

Sequence	switch fluorescence ratio
TTGGGCTGAA	1
TCGAGGACAT	1.07
TGACTGGCTC	0.969
TCTATGTCTC	0.875
TCACTCTTGG	0.985
CCAAGAAAGA	1.04
AGAGTTTATT	0.981
ACCACACCAT	1.34
ATTTACCCGC	1.1
AACATGGTTA	1.05
ATTTGGGGT	1.02
AACTTGCACT	1.1
TAAACAAGCC	1.12
AATTCTTTGG	0.993
ATGTGGCAGT	1.02
AGTCACGCAT	1.28
TCAAAGTCTG	0.986
TTTCGTGAAC	1.07
AGGCCCAGGA	0.989
TGCATGAATT	0.984
ACTGTATATG	1.19
ACTCGTAAGA	1.08
GATATCCATT	1
TAATCCCCGC	1.5
AGACAGCCAG	0.988
ATCAGATTCA	1.01

Sequence	switch fluorescence ratio
TTCCTGTGGC	1.07
ATTCTTATGA	0.966
GATGTGTCGG	0.978
CGAACCACGA	1.07
CTAGTAAAAT	1.07
AGCTCTTCGG	0.94
AATGTGCTTT	1.05
CAGCGCTTTA	0.993
CGTATATCTA	1.01
ATTCTGTATG	0.998
TCGCGGTAGG	1
ATGTCATCAT	0.997
GCGCTAGTCA	0.993
GCGTCACTTG	0.989
CCTGTATGTT	0.996
CTAACCACGA	1.03
TGAATTCCCC	1.01
TTGGTCAGGG	0.979
GAAAAAGCGA	3.36
AGCGCGTAAA	1.05
ATGCTGACTT	0.957
AAACTCGTAT	0.983
ATTGAGCC	1.01
CTGAGTGAAT	1.19
TCATACTGTA	1.21
GCGTGAACGT	1.05

Sequence	switch fluorescence ratio
GACTATCATA	1.1
CCGGACCGGG	1.04
CTGTATAACA	0.985
TCGAGGCCAG	1.07
GAAGTAGTGT	0.993
ATCATCCTC	1.04
CTCATGCGA	2.2
ATCGGTCTGG	0.999
GTACATTAAA	1.03
GAATTTTATT	1.04
TGTAGGGGCC	1.11
GCGCCCACAC	1.35
AAGATATAGT	1.01
GCCATGAGTA	0.986
AGTAGTTCAT	0.971
CGCGGGCGTC	1
TTCCATCTGG	0.984
CAACAGTCAT	0.976
GAAAGGCAAC	1.06
TAACTCCAGA	0.987
CCTCTCATGT	1.33
ACACAGGGCT	1.04
ATTTAGCAGT	1.02
CGAGACGCC	1.1
GATAGGGTGG	0.953
CGCCCAACT	1.1

Sequence	switch fluorescence ratio
CTTCACAGTA	1.05
ACAGGTAGGC	1
TAAGCCCTAT	0.989
AAAGGGCTGA	0.908
GCTACCACGC	1.01
TGGATAACGT	0.953
TTGGGCTGCA	1.05
TTGGTATTAC	1.02
GGTGTGCGGG	0.997
TAGATTCAGA	0.979
TTATCGCATG	1.36
CTCCATAAGT	1.03
GGTGATAGTC	1.01
CGGACACGGT	0.966
TGCATGGCC	0.959
CACTAGTGAA	0.95
TCACGGTACC	1.52
AGGTTCATTC	0.982
CCGGGAAAAA	0.947
CTATGATATG	0.989
AGCTTGTAGA	0.989
GGTTAGGATA	1.02
CCGTTGAGAG	1.07
CATGAACCTT	1.6
CTGATCTAGA	0.998
TGCCAGTCCG	0.989

Sequence	switch fluorescence ratio
TGATAGGCAA	2.13
GCTGCCGATA	1.13
CATAGCCGCA	1.07
ACGATGCTTG	1.02
GTTTAA	0.941
AAAATCGTAT	1.01
GCGGCATGAC	1.27
ATACAGCATA	1.12
ATCCCTATAT	1.04
TGTATTTAGC	1.01
GATAATTAAT	1.18
AGCGCTTGGA	0.99
CACGTAAAGG	1.23
TCTTTTGTCT	1.02
TTACAATGAA	1
AGGGGCGATT	0.979
CTAGGCCCTG	0.989
TCAGTGAATC	1.01
TAACCCTGTT	0.986

Reference: the supplement of paper PMC10126150
